The source gives no read counts; variants with many changes may rest on few reads.

First the molecules themselves.
B1: LINE1-mini (parent)
chain: GGCAGAGCUCAACACAGCGUGGCAAAGUGGCUGUGGCUAGACUGCC

Variants of B1 are the subject of the data set. In words: self-cleavage, relative activity (ratio to wild type); higher = more cleavage; in vitro, sequencing; the parent is a self-cleaving ribozyme.
For the variant C10G C13A U34G, the self-cleavage stood at 0.04.

On to C10A U28A C42U, for which the self-cleavage is 0.38.

Turning to C10A G40U G44U, the self-cleavage was determined as 0.02.

As for C10A G33U C45U, the self-cleavage was 0.05.

On to C10G C15G A24U C31A C42A, for which the self-cleavage is 0.

As to C10G A11U A12C C46A, the self-cleavage was 0.01.

As to C10G A26U U32A C42G, the self-cleavage was 0.03.

Consider C10G A26G G27A, for which the self-cleavage is 0.03.

Take C10A U20G C23U A39U: the self-cleavage came out at 0.15.

As for C10G A24G G33A, the self-cleavage turned out to be 0.03.

Turning to C10A G33A G36C, the self-cleavage worked out at 0.03.

For C10A U32A G40C U43G, the self-cleavage is 0.03.

As to C10G A16G G21A G33A, the self-cleavage turned out to be 0.03.

For the variant C10A G35U C37A, the self-cleavage turned out to be 0.01.

As for C10G A11G G19C U32A, the self-cleavage was determined as 0.01.

Turning to C10G A12C G17C A25C C31A G44U, the self-cleavage was determined as 0.

Turning to C10A U38G G40C, the self-cleavage amounted to 0.

In the case of C10A G33C U34G C46U, the self-cleavage was 0.02.

Regarding C10A U34G G36U C46A, the self-cleavage turned out to be 0.01.

As for C10G A26G G36A G40U U43G, the self-cleavage stood at 0.

As to C10A U32A G33A A39U C46A, the self-cleavage was 0.01.

Turning to C10G A26U U32C, the self-cleavage came out at 0.02.

Take C10A G33U C46A: the self-cleavage came out at 0.02.

Regarding C10G A14G G17U A24G A25U, the self-cleavage is 0.02.

Take C10G A11G G17C C18G: the self-cleavage was 0.

As to C10A G27U C31A, the self-cleavage was determined as 0.12.

For C10G A25U G36C C45G, the self-cleavage was 0.01.

For the variant C10G A26G C37U, the self-cleavage is 0.01.

In the case of C10G C13U U32A, the self-cleavage turned out to be 0.02.

Turning to C10G A14U U38A, the self-cleavage came out at 0.02.

C10A G30U C37G C45U: the self-cleavage was 0.

C10G C13U G17A A25G C46U: the self-cleavage stood at 0.04.

C10A G35C G36U U43A: the self-cleavage stood at 0.

For C10A G27U G40C, the self-cleavage worked out at 0.03.

Regarding C10A U20A G44C, the self-cleavage came out at 0.03.

Consider C10G C13U C18U C23G U28G G30A G33A U43A, for which the self-cleavage was determined as 0.01.

As to C10G A16U G30A G33A A41U, the self-cleavage is 0.02.

Consider C10G A24C G27A G40A, for which the self-cleavage came out at 0.03.

C10A U34C U38C A39G: the self-cleavage is 0.01.

With C10G A11G A12G G36U, the self-cleavage worked out at 0.02.

In the case of C10A G27U U34G G35A, the self-cleavage was 0.01.

For the variant C10A U38A A39U, the self-cleavage was 0.16.

Turning to C10G A12U U28C G33C C45U, the self-cleavage turned out to be 0.01.

With C10A U34G G44A, the self-cleavage is 0.01.

For C10G A16G U38C G40A C46U, the self-cleavage amounted to 0.

Turning to C10A G30C G35A C37A, the self-cleavage was determined as 0.01.

Take C10A G33U G36U: the self-cleavage stood at 0.

C10A G33U G36C: the self-cleavage is 0.03.

Consider C10A G33A U34A, for which the self-cleavage came out at 0.04.

Consider C10G C13G G17U G19U A26C, for which the self-cleavage came to 0.

C10A U28C G40A: the self-cleavage is 0.02.

On to C10G A24U A26C C37G G40U, for which the self-cleavage stood at 0.02.

Turning to C10A U28G C37A, the self-cleavage was found to be 0.01.

As for C10A U28C G33C, the self-cleavage is 0.04.

Regarding C10G A14U U34C U43C, the self-cleavage worked out at 0.01.

For C10A G35A G40C C46A, the self-cleavage is 0.07.

Regarding C10G A11G G21U C31U C42U, the self-cleavage worked out at 0.01.

Turning to C10A G29U G35A U38G, the self-cleavage came out at 0.04.

For C10A G36U G44U, the self-cleavage was found to be 0.01.

Regarding C10G A11G C37U C46A, the self-cleavage was found to be 0.

In the case of C10G C13U C15U A26U, the self-cleavage stood at 0.03.

In the case of C10A U20G A24U C37A, the self-cleavage was found to be 0.02.

In the case of C10G A26U G36A C42U, the self-cleavage was found to be 0.01.

On to C10G A12U A41C C46A, for which the self-cleavage came to 0.01.

In the case of C10G A11U C18A C37A C45G C46U, the self-cleavage was 0.

Regarding C10G A11C G21C, the self-cleavage is 0.02.

On to C10G C13A C31U, for which the self-cleavage is 0.04.

For the variant C10A G33U U38G, the self-cleavage turned out to be 0.

Consider C10A U34A C45U, for which the self-cleavage turned out to be 0.05.

Turning to C10G A14U G19A C42A, the self-cleavage was determined as 0.01.

With C10A G29C U34C, the self-cleavage was 0.02.

Regarding C10A U20G C42A, the self-cleavage was 0.

Turning to C10G C15G C18G G35U, the self-cleavage worked out at 0.01.

As for C10G A11G G36C, the self-cleavage was determined as 0.01.

As for C10A U20C G21C G40U, the self-cleavage stood at 0.03.

For C10G A11C G29A C42A, the self-cleavage was found to be 0.

Regarding C10A G35A C37G U38A, the self-cleavage was 0.01.

As to C10A G30U G35C C46U, the self-cleavage came out at 0.03.

With C10G A16G G30U, the self-cleavage was 0.04.

For C10G A12U U43C, the self-cleavage was 0.

As for C10A U20G A26U C45U, the self-cleavage came out at 0.01.

For the variant C10A G27U U34C, the self-cleavage was determined as 0.08.

In the case of C10G A11U A16U G33A, the self-cleavage turned out to be 0.01.

For C10G A14U A16U U32C, the self-cleavage was found to be 0.02.

In the case of C10G A14C A39U, the self-cleavage stood at 0.02.

With C10G C13U A16U, the self-cleavage was 0.03.

With C10A G29C U34A A39C C42A, the self-cleavage came to 0.02.

C10A U34G G36U: the self-cleavage came out at 0.

On to C10A G27A U34C U43C, for which the self-cleavage worked out at 0.03.

Take C10G C15A A24G G30U: the self-cleavage was 0.03.

Take C10A U34G G35A: the self-cleavage came out at 0.01.

Regarding C10G A16U C18U G30U C42U, the self-cleavage turned out to be 0.01.

In the case of C10A U43A C46A, the self-cleavage worked out at 0.01.

Consider C10A G29A C42A, for which the self-cleavage worked out at 0.02.

Consider C10G C13G G30C G35U, for which the self-cleavage is 0.01.

For the variant C10A G36A G40U, the self-cleavage was found to be 0.05.

As for C10A G29C G33U G35A C42A, the self-cleavage was 0.

Turning to C10A G27U G30U C45G, the self-cleavage was found to be 0.01.

Regarding C10A U20A G22U, the self-cleavage was 0.

C10G C13A G17U A25C C37U A41U C42U: the self-cleavage is 0.01.

C10G A14C G29A G30A: the self-cleavage was 0.01.

Regarding C10A G33A C37A, the self-cleavage amounted to 0.02.

For the variant C10A G40C U43A, the self-cleavage amounted to 0.05.

On to C10G A11C C23U, for which the self-cleavage is 0.

C10G C13U U38C A41U: the self-cleavage came to 0.01.

As for C10G C13U A26G G36A A41U, the self-cleavage was found to be 0.

With C10A G33A U38A, the self-cleavage was 0.03.

For C10G A24C U34A C46G, the self-cleavage worked out at 0.02.

As to C10A U38C U43A, the self-cleavage amounted to 0.01.

With C10A G29U U38G, the self-cleavage amounted to 0.08.

For the variant C10A U38G C45U, the self-cleavage came to 0.07.

For C10G A12G C13A C46A, the self-cleavage is 0.04.

C10G A12C U20G: the self-cleavage was 0.01.

As to C10G C13A G19U C37A, the self-cleavage turned out to be 0.

Regarding C10G A11C G17C, the self-cleavage was 0.02.

Turning to C10G A11U G29A C45G, the self-cleavage is 0.02.

Consider C10G A11U U20G U32G C37A C42G, for which the self-cleavage was 0.

Turning to C10A U28G C31U, the self-cleavage is 0.2.

Take C10G A14G C23A A39G: the self-cleavage came to 0.02.

On to C10G A24C U28G G30C C46U, for which the self-cleavage was 0.15.

As for C10A U38C C46U, the self-cleavage was 0.05.

C10G A11C C18A: the self-cleavage came out at 0.02.

As for C10G A25G G30C U32A U34A G35U C45G, the self-cleavage came to 0.01.

As for C10A U20C G36A A41C, the self-cleavage was found to be 0.06.

As to C10G A11U G17A G36U C42A, the self-cleavage came to 0.01.

C10G C13A C15A G19A G36C A41U: the self-cleavage was determined as 0.01.

For C10G A11G G17A C23A C31G A41U, the self-cleavage was found to be 0.

As to C10G C13A U34C G35U C37U G44A, the self-cleavage is 0.02.

Consider C10A U32G G40U, for which the self-cleavage was determined as 0.03.

Regarding C10G A11U C45U, the self-cleavage turned out to be 0.02.

Consider C10G A11C G22A, for which the self-cleavage is 0.02.

In the case of C10A G35A G40C, the self-cleavage stood at 0.02.

C10A G29U C31U U43A: the self-cleavage came out at 0.01.

In the case of C10G A12C G33A C46A, the self-cleavage was determined as 0.01.

On to C10G A24U A25C U34G C45A, for which the self-cleavage turned out to be 0.

C10A U38C A39G G44A: the self-cleavage is 0.

As to C10A U28A U34G, the self-cleavage turned out to be 0.04.

In the case of C10G A14C C42G, the self-cleavage was 0.01.

As to C10G A26G U43C, the self-cleavage stood at 0.01.

As for C10G A11G G21A A24U G30C C31A, the self-cleavage was 0.01.

As for C10G A12U U32A, the self-cleavage was 0.02.

On to C10G A16U A24U, for which the self-cleavage turned out to be 0.01.

On to C10G C13G G36C C37U, for which the self-cleavage was determined as 0.

Take C10G A14G G19A G21U G40U: the self-cleavage came to 0.01.

For the variant C10G C15G A41U U43G C46A, the self-cleavage worked out at 0.02.

Take C10A G33C C46A: the self-cleavage amounted to 0.03.

For the variant C10G A14C G19A G35C G36A, the self-cleavage was 0.

Consider C10G A14G U43C C46U, for which the self-cleavage came out at 0.01.

Regarding C10G A11G A12C A16G, the self-cleavage was 0.

For the variant C10G A11U C13G, the self-cleavage came out at 0.02.

Consider C10G A11C A26U G27C A41U, for which the self-cleavage turned out to be 0.01.

In the case of C10A U32A C42G, the self-cleavage stood at 0.

As to C10A G27A U38A, the self-cleavage was determined as 0.43.

For the variant C10G A14G A16U C37G, the self-cleavage stood at 0.01.

With C10G A14U U32C, the self-cleavage was 0.02.

C10G A14C G44A: the self-cleavage came to 0.05.

Turning to C10G A16G A39G, the self-cleavage amounted to 0.03.

For the variant C10A U32G G35U G40C, the self-cleavage worked out at 0.06.

Consider C10G A24C C37U, for which the self-cleavage stood at 0.01.

With C10G C15A C37A, the self-cleavage came out at 0.

As to C10G A25G G29C U38G C45U, the self-cleavage stood at 0.01.

In the case of C10G A12G A16G C37A, the self-cleavage was found to be 0.03.

On to C10G A11C C23A G36U A41G G44A, for which the self-cleavage was found to be 0.01.

As for C10G C13A A24U C42A, the self-cleavage is 0.02.

Regarding C10G C15A G35U C46A, the self-cleavage was 0.03.

Turning to C10G A11G A16C C46A, the self-cleavage was 0.

Regarding C10G A25C G30A G35U A39U, the self-cleavage is 0.02.

The values are drawn from the RNAGym collection of RNA variant scans (doi:10.7554/elife.90254).
